# Assay results from the supplement of paper PMC8728848.
# Some of the results follow.
# B1: CTLY 1 (Homo sapiens), Q6ZS10 (protein)
# chain: AITCPEGWLPFEGKCYYFSPSTKSWDEARMFCQENYSHLVIINSFAEHNFVAKAHGSPRVYWLGLNDRAQEGDWRWLDGSPVTLSFWEPEEPNNIHDEDCATMNKGGTWNDLSCYKTTYWICERKGLNDIFEAQKIEWHE
# Assays:
# Assay in all cases: glycan array binding signal (z-score within array); higher = stronger binding
# Settings in all cases: glycan notation: IUPAC condensed, linker removed
# [1] = molecular target: GlcNAc6S(b1-3)Gal(b1-4)GlcNAc
# Summary of the method: (§1)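 Arrays were curated from the Consortium for Functional Glycomics database, 3228 in total, and kept only where the protein sequence was available. Binding is expressed as a within-array Z-score. This score was averaged across arrays of the same protein sequence at different concentrations or buffers and across linkers, and negative values can be read as non-binding.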
# Kdn(a2-3)Gal(b1-3)GalNAc = molecular target: Kdn(a2-3)Gal(b1-3)GalNAc
# Summary of the method: as §1
# Kdn(a2-3)Gal(b1-3)GlcNAc = molecular target: Kdn(a2-3)Gal(b1-3)GlcNAc
# Summary of the method: as §1
# Kdn(a2-3)Gal(b1-4)Glc = molecular target: Kdn(a2-3)Gal(b1-4)Glc
# Summary of the method: as §1
# Kdn(a2-3)Gal(b1-4)GlcNAc = molecular target: Kdn(a2-3)Gal(b1-4)GlcNAc
# Summary of the method: as §1
# [2] = molecular target: Kdn(a2-3)Gal(b1-4)[Fuc(a1-3)]GlcNAc
# Summary of the method: as §1
# Kdn(a2-6)Gal(b1-4)GlcNAc = molecular target: Kdn(a2-6)Gal(b1-4)GlcNAc
# Summary of the method: as §1
# [3] = molecular target: Man(a1-2)Man(a1-2)Man(a1-3)Man
# Summary of the method: as §1
# [4] = molecular target: Man(a1-2)Man(a1-2)Man(a1-6)[Man(a1-3)]Man
# Summary of the method: as §1
# Man(a1-2)Man(a1-3)Man = molecular target: Man(a1-2)Man(a1-3)Man
# Summary of the method: as §1
# [5] = molecular target: Man(a1-2)Man(a1-3)[Man(a1-2)Man(a1-6)]Man
# Summary of the method: as §1
# [6] = molecular target: Man(a1-2)Man(a1-3)[Man(a1-2)Man(a1-6)]Man(a1-6)[Man(a1-2)Man(a1-2)Man(a1-3)]Man
# Summary of the method: as §1
# [7] = molecular target: Man(a1-2)Man(a1-3)[Man(a1-2)Man(a1-6)]Man(a1-6)[Man(a1-2)Man(a1-2)Man(a1-3)]Man(b1-4)GlcNAc(b1-4)GlcNAc
# Summary of the method: as §1
# [8] = molecular target: Man(a1-2)Man(a1-3)[Man(a1-6)]Man(a1-6)[Man(a1-2)Man(a1-3)]Man(b1-4)GlcNAc(b1-4)GlcNAc
# Summary of the method: as §1
# [9] = molecular target: Man(a1-2)Man(a1-6)[Man(a1-3)]Man(a1-6)[Man(a1-2)Man(a1-2)Man(a1-3)]Man
# Summary of the method: as §1
# [10] = molecular target: Man(a1-2)Man(a1-6)[Man(a1-3)]Man(a1-6)[Man(a1-2)Man(a1-2)Man(a1-3)]Man(b1-4)GlcNAc(b1-4)GlcNAc
# Summary of the method: as §1
# Man(a1-3)[Man(a1-6)]Man = molecular target: Man(a1-3)[Man(a1-6)]Man
# Summary of the method: as §1
# [11] = molecular target: Man(a1-3)[Man(a1-6)]Man(a1-6)[Man(a1-2)Man(a1-3)]Man(b1-4)GlcNAc(b1-4)GlcNAc
# Summary of the method: as §1
# [12] = molecular target: Man(a1-3)[Man(a1-6)]Man(a1-6)[Man(a1-3)]Man
# Summary of the method: as §1
# [13] = molecular target: Man(a1-3)[Man(a1-6)]Man(a1-6)[Man(a1-3)]Man(b1-4)GlcNAc(b1-4)GlcNAc
# Summary of the method: as §1
# [14] = molecular target: Man(a1-3)[Man(a1-6)]Man(b1-4)GlcNAc(b1-4)GlcNAc
# Summary of the method: as §1
# Man(a1-6)Man = molecular target: Man(a1-6)Man
# Summary of the method: as §1
# Man(b1-4)GlcNAc = molecular target: Man(b1-4)GlcNAc
# Summary of the method: as §1
# Neu5Ac(a2-3)Gal = molecular target: Neu5Ac(a2-3)Gal
# Summary of the method: as §1
# [15] = molecular target: Neu5Ac(a2-3)Gal(b1-3)GalNAc
# Summary of the method: as §1
# [16] = molecular target: Neu5Ac(a2-3)Gal(b1-3)GalNAc(b1-3)Gal(a1-4)Gal(b1-4)Glc
# Summary of the method: as §1
# [17] = molecular target: Neu5Ac(a2-3)Gal(b1-3)GalNAc(b1-4)[Neu5Ac(a2-3)]Gal(b1-4)Glc
# Summary of the method: as §1
# [18] = molecular target: Neu5Ac(a2-3)Gal(b1-3)GalNAc6S
# Summary of the method: as §1
# [19] = molecular target: Neu5Ac(a2-3)Gal(b1-3)GlcNAc
# Summary of the method: as §1
# [20] = molecular target: Neu5Ac(a2-3)Gal(b1-3)GlcNAc(b1-2)Man(a1-3)[Neu5Ac(a2-3)Gal(b1-3)GlcNAc(b1-2)Man(a1-6)]Man(b1-4)GlcNAc(b1-4)GlcNAc
# Summary of the method: as §1
# [21] = molecular target: Neu5Ac(a2-3)Gal(b1-3)GlcNAc(b1-3)Gal(b1-3)GlcNAc
# Summary of the method: as §1
# [22] = molecular target: Neu5Ac(a2-3)Gal(b1-3)GlcNAc(b1-3)Gal(b1-4)GlcNAc
# Summary of the method: as §1
# [23] = molecular target: Neu5Ac(a2-3)Gal(b1-3)GlcNAc(b1-3)GalNAc
# Summary of the method: as §1
# [24] = molecular target: Neu5Ac(a2-3)Gal(b1-3)GlcNAc6S
# Summary of the method: as §1
# [25] = molecular target: Neu5Ac(a2-3)Gal(b1-3)[Fuc(a1-4)]GlcNAc
# Summary of the method: as §1
# [26] = molecular target: Neu5Ac(a2-3)Gal(b1-3)[Fuc(a1-4)]GlcNAc(b1-3)Gal(b1-3)[Fuc(a1-4)]GlcNAc
# Summary of the method: as §1
# [27] = molecular target: Neu5Ac(a2-3)Gal(b1-3)[Fuc(a1-4)]GlcNAc(b1-3)Gal(b1-4)[Fuc(a1-3)]GlcNAc
# Summary of the method: as §1
# [28] = molecular target: Neu5Ac(a2-3)Gal(b1-3)[Neu5Ac(a2-3)Gal(b1-4)]GlcNAc
# Summary of the method: as §1
# [29] = molecular target: Neu5Ac(a2-3)Gal(b1-3)[Neu5Ac(a2-6)]GalNAc
# Summary of the method: as §1
# Neu5Ac(a2-3)Gal(b1-4)Glc = molecular target: Neu5Ac(a2-3)Gal(b1-4)Glc
# Summary of the method: as §1
# [30] = molecular target: Neu5Ac(a2-3)Gal(b1-4)GlcNAc
# Summary of the method: as §1
# [31] = molecular target: Neu5Ac(a2-3)Gal(b1-4)GlcNAc(b1-2)Man(a1-3)[GlcNAc(b1-2)Man(b1-4)GlcNAc(b1-2)Man(a1-6)]Man(b1-4)GlcNAc(b1-4)GlcNAc
# Summary of the method: as §1
# [32] = molecular target: Neu5Ac(a2-3)Gal(b1-4)GlcNAc(b1-2)Man(a1-3)[Neu5Ac(a2-6)Gal(b1-4)GlcNAc(b1-2)Man(a1-6)]Man(b1-4)GlcNAc(b1-4)GlcNAc
# Summary of the method: as §1
# [33] = molecular target: Neu5Ac(a2-3)Gal(b1-4)GlcNAc(b1-3)Gal(b1-3)GlcNAc
# Summary of the method: as §1
# [34] = molecular target: Neu5Ac(a2-3)Gal(b1-4)GlcNAc(b1-3)Gal(b1-4)GlcNAc
# Summary of the method: as §1
binder,measurement,setting,value
B1,glycan array binding signal (z-score),[1],-0.249
same,glycan array binding signal (z-score),Kdn(a2-3)Gal(b1-3)GalNAc,-0.237
same,glycan array binding signal (z-score),Kdn(a2-3)Gal(b1-3)GlcNAc,-0.218
same,glycan array binding signal (z-score),Kdn(a2-3)Gal(b1-4)Glc,-0.217
same,glycan array binding signal (z-score),Kdn(a2-3)Gal(b1-4)GlcNAc,-0.234
same,glycan array binding signal (z-score),[2],-0.246
same,glycan array binding signal (z-score),Kdn(a2-6)Gal(b1-4)GlcNAc,-0.232
same,glycan array binding signal (z-score),[3],6.07
same,glycan array binding signal (z-score),[4],10.1
same,glycan array binding signal (z-score),Man(a1-2)Man(a1-3)Man,1.1
same,glycan array binding signal (z-score),[5],4.5
same,glycan array binding signal (z-score),[6],8.68
same,glycan array binding signal (z-score),[7],-0.232
same,glycan array binding signal (z-score),[8],-0.023
same,glycan array binding signal (z-score),[9],4.81
same,glycan array binding signal (z-score),[10],0.475
same,glycan array binding signal (z-score),Man(a1-3)[Man(a1-6)]Man,-0.175
same,glycan array binding signal (z-score),[11],0.443
same,glycan array binding signal (z-score),[12],-0.185
same,glycan array binding signal (z-score),[13],-0.105
same,glycan array binding signal (z-score),[14],-0.209
same,glycan array binding signal (z-score),Man(a1-6)Man,-0.228
same,glycan array binding signal (z-score),Man(b1-4)GlcNAc,-0.239
same,glycan array binding signal (z-score),Neu5Ac(a2-3)Gal,-0.238
same,glycan array binding signal (z-score),[15],-0.249
same,glycan array binding signal (z-score),[16],-0.202
same,glycan array binding signal (z-score),[17],-0.231
same,glycan array binding signal (z-score),[18],-0.225
same,glycan array binding signal (z-score),[19],-0.247
same,glycan array binding signal (z-score),[20],-0.228
same,glycan array binding signal (z-score),[21],-0.221
same,glycan array binding signal (z-score),[22],-0.235
same,glycan array binding signal (z-score),[23],-0.237
same,glycan array binding signal (z-score),[24],-0.221
same,glycan array binding signal (z-score),[25],0.687
same,glycan array binding signal (z-score),[26],0.772
same,glycan array binding signal (z-score),[27],0.555
same,glycan array binding signal (z-score),[28],-0.254
same,glycan array binding signal (z-score),[29],-0.23
same,glycan array binding signal (z-score),Neu5Ac(a2-3)Gal(b1-4)Glc,-0.24
same,glycan array binding signal (z-score),[30],-0.229
same,glycan array binding signal (z-score),[31],-0.241
same,glycan array binding signal (z-score),[32],-0.247
same,glycan array binding signal (z-score),[33],-0.248
same,glycan array binding signal (z-score),[34],-0.264
